Measurements published in PMC9911399, “Two distinct binding modes provide the RNA-binding protein RbFox with extraordinary sequence specificity”.
Residue numbers refer to the chain shown, from its start. This is one part of the list.

T1: RBFOX1 RRM (Homo sapiens, UniProt Q9NWB1 109-208)
T1 sequence: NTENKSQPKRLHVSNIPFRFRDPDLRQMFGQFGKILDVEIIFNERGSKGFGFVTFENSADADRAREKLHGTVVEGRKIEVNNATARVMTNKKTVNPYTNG

B1: GUGGACC (DNA:RNA)
RNA: GGGAGACCGGAAUUCAGAUUGUCCGUGGACCUUAAAUCCCGUCGUAGCCACCA
DNA 1: CAATCTGAATTCCGGTCTCCC
DNA 2: TGGTGGCTACGACGGGATT
B2: CAGGACC (DNA:RNA)
RNA: B1 RNA with G25C, U26A
DNA 1: CAATCTGAATTCCGGTCTCCC
DNA 2: TGGTGGCTACGACGGGATT
B3: GUACCUG (DNA:RNA)
RNA: B1 RNA with G27A, G28C, A29C, C30U, C31G
DNA 1: CAATCTGAATTCCGGTCTCCC
DNA 2: TGGTGGCTACGACGGGATT
B4: CUAACUC (DNA:RNA)
RNA: B1 RNA with G25C, G27A, G28A, A29C, C30U
DNA 1: CAATCTGAATTCCGGTCTCCC
DNA 2: TGGTGGCTACGACGGGATT
B5: AGCUAAG (DNA:RNA)
RNA: B1 RNA with G25A, U26G, G27C, G28U, C30A, C31G
DNA 1: CAATCTGAATTCCGGTCTCCC
DNA 2: TGGTGGCTACGACGGGATT
B6: GUAGACC (DNA:RNA)
RNA: B1 RNA with G27A
DNA 1: CAATCTGAATTCCGGTCTCCC
DNA 2: TGGTGGCTACGACGGGATT
B7: CUAGUCG (DNA:RNA)
RNA: B1 RNA with G25C, G27A, A29U, C31G
DNA 1: CAATCTGAATTCCGGTCTCCC
DNA 2: TGGTGGCTACGACGGGATT
B8: CAAUGGU (DNA:RNA)
RNA: GGGAGACCGGAAUUCAGAUUGUCCCAAUGGUUUAAAUCCCGUCGUAGCCACCA
DNA 1: CAATCTGAATTCCGGTCTCCC
DNA 2: TGGTGGCTACGACGGGATT
B9: GCGACAG (DNA:RNA)
RNA: B1 RNA with U26C, G28A, A29C, C30A, C31G
DNA 1: CAATCTGAATTCCGGTCTCCC
DNA 2: TGGTGGCTACGACGGGATT
B10: GCUAGCG (DNA:RNA)
RNA: B1 RNA with U26C, G27U, G28A, A29G, C31G
DNA 1: CAATCTGAATTCCGGTCTCCC
DNA 2: TGGTGGCTACGACGGGATT
B11: CGAGCGA (DNA:RNA)
RNA: B8 RNA with A26G, U28G, G29C, U31A
DNA 1: CAATCTGAATTCCGGTCTCCC
DNA 2: TGGTGGCTACGACGGGATT
B12: AACCCAU (DNA:RNA)
RNA: B8 RNA with C25A, A27C, U28C, G29C, G30A
DNA 1: CAATCTGAATTCCGGTCTCCC
DNA 2: TGGTGGCTACGACGGGATT
B13: AAGGUUC (DNA:RNA)
RNA: B1 RNA with G25A, U26A, A29U, C30U
DNA 1: CAATCTGAATTCCGGTCTCCC
DNA 2: TGGTGGCTACGACGGGATT
B14: AUCUUGG (DNA:RNA)
RNA: B8 RNA with C25A, A26U, A27C, G29U, U31G
DNA 1: CAATCTGAATTCCGGTCTCCC
DNA 2: TGGTGGCTACGACGGGATT
B15: UCGUUAG (DNA:RNA)
RNA: B8 RNA with C25U, A26C, A27G, G29U, G30A, U31G
DNA 1: CAATCTGAATTCCGGTCTCCC
DNA 2: TGGTGGCTACGACGGGATT
B16: AUCAUCG (DNA:RNA)
RNA: B1 RNA with G25A, G27C, G28A, A29U, C31G
DNA 1: CAATCTGAATTCCGGTCTCCC
DNA 2: TGGTGGCTACGACGGGATT
B17: CACGAUA (DNA:RNA)
RNA: B8 RNA with A27C, U28G, G29A, G30U, U31A
DNA 1: CAATCTGAATTCCGGTCTCCC
DNA 2: TGGTGGCTACGACGGGATT
B18: GUCUUGG (DNA:RNA)
RNA: B8 RNA with C25G, A26U, A27C, G29U, U31G
DNA 1: CAATCTGAATTCCGGTCTCCC
DNA 2: TGGTGGCTACGACGGGATT
B19: AGAAAAU (DNA:RNA)
RNA: B8 RNA with C25A, A26G, U28A, G29A, G30A
DNA 1: CAATCTGAATTCCGGTCTCCC
DNA 2: TGGTGGCTACGACGGGATT
B20: AUAUCCU (DNA:RNA)
RNA: B8 RNA with C25A, A26U, G29C, G30C
DNA 1: CAATCTGAATTCCGGTCTCCC
DNA 2: TGGTGGCTACGACGGGATT
B21: AUAUGUG (DNA:RNA)
RNA: B8 RNA with C25A, A26U, G30U, U31G
DNA 1: CAATCTGAATTCCGGTCTCCC
DNA 2: TGGTGGCTACGACGGGATT
B22: CAAUGUU (DNA:RNA)
RNA: B8 RNA with G30U
DNA 1: CAATCTGAATTCCGGTCTCCC
DNA 2: TGGTGGCTACGACGGGATT
B23: GUAUCAC (DNA:RNA)
RNA: B1 RNA with G27A, G28U, A29C, C30A
DNA 1: CAATCTGAATTCCGGTCTCCC
DNA 2: TGGTGGCTACGACGGGATT
B24: GUAUGCC (DNA:RNA)
RNA: B1 RNA with G27A, G28U, A29G
DNA 1: CAATCTGAATTCCGGTCTCCC
DNA 2: TGGTGGCTACGACGGGATT
B25: AUGUGAG (DNA:RNA)
RNA: B8 RNA with C25A, A26U, A27G, G30A, U31G
DNA 1: CAATCTGAATTCCGGTCTCCC
DNA 2: TGGTGGCTACGACGGGATT
B26: ACCUUGA (DNA:RNA)
RNA: B8 RNA with C25A, A26C, A27C, G29U, U31A
DNA 1: CAATCTGAATTCCGGTCTCCC
DNA 2: TGGTGGCTACGACGGGATT
B27: CGGUGUC (DNA:RNA)
RNA: B8 RNA with A26G, A27G, G30U, U31C
DNA 1: CAATCTGAATTCCGGTCTCCC
DNA 2: TGGTGGCTACGACGGGATT
B28: UCAACUG (DNA:RNA)
RNA: B8 RNA with C25U, A26C, U28A, G29C, G30U, U31G
DNA 1: CAATCTGAATTCCGGTCTCCC
DNA 2: TGGTGGCTACGACGGGATT
B29: AGGAAUG (DNA:RNA)
RNA: B1 RNA with G25A, U26G, G28A, C30U, C31G
DNA 1: CAATCTGAATTCCGGTCTCCC
DNA 2: TGGTGGCTACGACGGGATT
B30: GUAAGUA (DNA:RNA)
RNA: B8 RNA with C25G, A26U, U28A, G30U, U31A
DNA 1: CAATCTGAATTCCGGTCTCCC
DNA 2: TGGTGGCTACGACGGGATT
B31: AUAUCGG (DNA:RNA)
RNA: B8 RNA with C25A, A26U, G29C, U31G
DNA 1: CAATCTGAATTCCGGTCTCCC
DNA 2: TGGTGGCTACGACGGGATT

Target: T1, RBFOX1 RRM
Experiment: EMSA; HiTS-Eq, 1 nM pool, 10 min; buffer printed only for the single-RNA assays: 10 mM Tris pH 7.5, 150 mM NaCl, 3.4 mM EDTA, 0.001% NP-40, 30 C
Settings: tags: His6 N-terminal (pET28a); label: 5' 32P
Outline: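 These values rest on relative association constants, computed from read-count changes of each RNA species versus the control reaction and normalised to the cognate motif. Reads came from free RNA recovered by 8% native PAGE after purified RbFox RRM (wild type or mutant) at increasing concentrations was equilibrated for 10 min in 50 µL with 1 nM of a 5′-radiolabelled pool with 7 randomized nucleotides and DNA-annealed flanks.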

Binder | binding signal
B1 | 0.0137 KA relative to UGCAUGU
B2 | 0.00449 KA relative to UGCAUGU
B3 | 0.0127 KA relative to UGCAUGU
B4 | 0.00388 KA relative to UGCAUGU
B5 | 0.00985 KA relative to UGCAUGU
B6 | 0.00522 KA relative to UGCAUGU
B7 | 0.00925 KA relative to UGCAUGU
B8 | 0.0107 KA relative to UGCAUGU
B9 | 0.0128 KA relative to UGCAUGU
B10 | 0.0161 KA relative to UGCAUGU
B11 | 0.0122 KA relative to UGCAUGU
B12 | 0.00045 KA relative to UGCAUGU
B13 | 0.0106 KA relative to UGCAUGU
B14 | 0.0117 KA relative to UGCAUGU
B15 | 0.0174 KA relative to UGCAUGU
B16 | 0.00368 KA relative to UGCAUGU

Binder | binding signal
B17 | 0.00196 KA relative to UGCAUGU
B18 | 0.0272 KA relative to UGCAUGU
B19 | 0.0045 KA relative to UGCAUGU
B20 | 0.000782 KA relative to UGCAUGU
B21 | 0.016 KA relative to UGCAUGU
B22 | 0.00782 KA relative to UGCAUGU
B23 | 0.00703 KA relative to UGCAUGU
B24 | 0.0139 KA relative to UGCAUGU
B25 | 0.00686 KA relative to UGCAUGU
B26 | 0.006 KA relative to UGCAUGU
B27 | 0.0167 KA relative to UGCAUGU
B28 | 0.00683 KA relative to UGCAUGU
B29 | 0.0471 KA relative to UGCAUGU
B30 | 0.00628 KA relative to UGCAUGU
B31 | 0.00687 KA relative to UGCAUGU
